According to PMC4336329 (PLoS ONE, 2015):
Out of some 310,000 compounds screened, about 14,000 (4.5%) showed an effect of 50% or more. The effect is printed as a negative number. This is one part of the list.

These compounds were tested against human ether-à-go-go-related gene (hERG) potassium channel (human, UniProt Q12809) (assay: primary screen, population patch clamp on CHO cells stably expressing hERG).
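Also: peak tail current of the secondary pulse compared with the same well before compound.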

Chain of human ether-à-go-go-related gene (hERG) potassium channel (Q12809 whole entry, looked up): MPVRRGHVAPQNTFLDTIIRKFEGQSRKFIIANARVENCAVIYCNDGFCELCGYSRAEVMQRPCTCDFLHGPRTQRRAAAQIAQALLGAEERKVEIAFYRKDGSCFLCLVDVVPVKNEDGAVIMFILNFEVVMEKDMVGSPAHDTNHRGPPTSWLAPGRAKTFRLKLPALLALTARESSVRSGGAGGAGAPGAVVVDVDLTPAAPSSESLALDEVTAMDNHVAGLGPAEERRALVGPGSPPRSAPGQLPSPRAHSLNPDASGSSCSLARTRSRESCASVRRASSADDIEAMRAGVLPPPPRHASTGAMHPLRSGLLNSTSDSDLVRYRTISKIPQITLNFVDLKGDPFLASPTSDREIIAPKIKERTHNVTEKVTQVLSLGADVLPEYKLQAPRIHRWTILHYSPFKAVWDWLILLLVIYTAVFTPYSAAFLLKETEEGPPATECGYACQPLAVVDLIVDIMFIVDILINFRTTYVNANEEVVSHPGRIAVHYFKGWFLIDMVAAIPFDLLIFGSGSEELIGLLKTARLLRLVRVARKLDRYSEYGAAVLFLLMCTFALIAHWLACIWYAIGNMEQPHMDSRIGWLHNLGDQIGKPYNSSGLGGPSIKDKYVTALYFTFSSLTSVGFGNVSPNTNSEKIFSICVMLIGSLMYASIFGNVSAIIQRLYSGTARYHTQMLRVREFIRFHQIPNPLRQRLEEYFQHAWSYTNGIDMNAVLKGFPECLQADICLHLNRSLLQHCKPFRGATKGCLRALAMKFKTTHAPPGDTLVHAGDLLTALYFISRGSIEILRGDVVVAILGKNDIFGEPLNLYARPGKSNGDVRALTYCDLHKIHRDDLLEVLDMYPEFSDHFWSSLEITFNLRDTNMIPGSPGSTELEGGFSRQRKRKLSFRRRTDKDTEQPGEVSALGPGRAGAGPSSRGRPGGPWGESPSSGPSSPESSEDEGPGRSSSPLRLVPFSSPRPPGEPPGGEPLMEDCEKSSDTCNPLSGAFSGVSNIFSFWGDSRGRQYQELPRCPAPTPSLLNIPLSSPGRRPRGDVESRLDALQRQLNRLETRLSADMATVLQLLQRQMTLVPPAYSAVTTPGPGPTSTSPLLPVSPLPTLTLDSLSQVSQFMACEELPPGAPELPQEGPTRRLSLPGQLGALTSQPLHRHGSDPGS

Row | SMILES | hERG current change (%, negative = inhibition) at 10uM
1 | CCOc1ccccc1OCC(=O)OCC(=O)NNC(=O)c1ccc([N+](=O)[O-])cc1 | -11.4%
2 | O=C(OCCN=C1NS(=O)(=O)c2ccccc21)c1ccco1 | 9.33%
3 | CC(C)OC(=S)N/C(=N\S(=O)(=O)c1ccccc1)c1ccccc1 | 5.43%
4 | Cc1cc(C)nc(NS(=O)(=O)c2ccc(NC(=O)CCC3COc4ccccc4O3)cc2)n1 (centres unmarked) | -5.19%
5 | CC(=NCc1ccco1)C1=C(O)c2ccccc2C1=O | -14%
6 | COc1ccc(/C=N/NC(=O)c2ccn[nH]2)cc1COc1ccc(Cl)cc1Cl | 14.6%
7 | CCOC(=O)c1c(C)[nH]c(C(=O)OCC(=O)Nc2cc(C)ccc2OC)c1C | -0.258%
8 | CC(NC(=O)c1ccc(OC2CCN(Cc3ccccn3)CC2)cc1)c1ccccc1 (centres unmarked) | -20.3%
9 | CC(C)Cc1nnc(NC(=O)CCC(=O)N2CCN(c3ccc(Cl)cc3)CC2)s1 | -3.51%
10 | O=C(CS(=O)(=O)c1ccc(Cl)cc1)NCCS(=O)(=O)c1ccc(Cl)cc1 | -40.5%
11 | O=C(CS(=O)(=O)c1ccccc1)Nc1ccc(Cl)cn1 | -1.22%
12 | O=C(CCCCCn1c(=S)[nH]c2ccsc2c1=O)NC1CCCCC1 | 4.4%
13 | COc1ccc(CNC(=O)/C=C/c2ccc(S(=O)(=O)N3CCOCC3)cc2)cc1 | -8.55%
14 | Cc1cccc(NC(=O)/C(C#N)=C/c2cn(CC(=O)NCc3ccco3)c3ccccc23)c1C | 11%
15 | CCOC(=O)C1CCN(c2cc(=O)n(-c3ccccc3Cl)c(=O)[nH]2)CC1 | 4.41%
16 | CSc1ccc(CSCC(=O)N2CCN(S(=O)(=O)c3ccc(C)cc3C)CC2)cc1 | -20.3%
17 | CN(C)C(=O)c1ccc(-c2nnc(NCc3ccccc3)c3ccccc23)cc1 | -24.9%
18 | N#Cc1cn(CC(=O)NCC2CCCO2)c2ccccc12 (centres unmarked) | -0.916%
19 | CNC(=O)COC(=O)c1ccccc1NC(=O)c1ccco1 | -52.1%
20 | N#Cc1cn(CC(=O)O)c2ccccc12 | 3.2%
21 | c1ccc(CCNC2=NCCS2)cc1 | 12.2%
22 | CC(C)CCN1C(N(C)C)=NC[C@@H]1C | 14.6%
23 | CCOC(=O)C1=C(C)NC(=O)NC1C1CC=CCC1 (centres unmarked) | 4.78%

Row | SMILES | hERG current change (%, negative = inhibition) at 10uM
24 | CCOc1ccc(C2C(C#N)=C(N)Oc3cc(C)n(CCN(C)C)c(=O)c32)cc1OCC (centres unmarked) | -40%
25 | O=C(NCCN1CCOCC1)c1c(O)nc2sccn2c1=O | 14.2%
26 | COc1ccc(OC)c(NC(=O)c2ccc(S(=O)(=O)N3CCN(C)CC3)cc2)c1 | -13.1%
27 | CCOC(=O)C(C(=O)OCC)N(C#N)c1nc(SC)nc(N(C)C)n1 | -26.4%
28 | CC(C)CN(C(=O)COC(=O)CCc1nc2ccccc2s1)c1c(N)n(Cc2ccccc2)c(=O)[nH]c1=O | -0.0781%
29 | CCCCNC(=O)NC1(C(F)(F)F)Oc2ccccc2O1 | -0.0511%
30 | Cc1ccc(-c2csc(NC(=O)C3=NN(C4CCS(=O)(=O)C4)C(=O)CC3)n2)cc1 (centres unmarked) | -3.9%
31 | COc1ccc(Br)c(C(=O)OCC(=O)NC2CCCCCC2)c1 | -16.6%
32 | COc1ccc(Nc2nc(Cl)nc(Nc3ccc(OC)cc3OC)n2)c(OC)c1 | 8.79%
33 | CCOC(=O)N1CCN(C(=O)CCSc2ccc(Cl)cc2)CC1 | -42.3%
34 | O=C(C1CC1)N1CCc2cc(Br)cc(S(=O)(=O)NC3CCCCC3)c21 | 9.64%
35 | CC(=O)C1C(=O)CC(C)(O)C(C(C)=O)C1c1ccccc1 (centres unmarked) | 17.2%
36 | COc1ccc(C2C3=C(OC(C)=O)c4ccccc4C3=Nc3c2c(=O)n(C)c(=O)n3C)cc1 (centres unmarked) | 10.8%
37 | Cc1c(C(=O)OCC(=O)N(CCC#N)c2ccccc2)oc2c1ccc1ccccc12 | 0.0477%
38 | CC(C)CCN1CCN(Cc2nc3c(s2)CCCC3)CC1CCO (centres unmarked) | -28.2%
39 | N#C/C(=C\c1cccnc1)c1nc2c(s1)CCCC2 | -3.11%
40 | COc1cc(NC(=O)c2cc(C)no2)cc(OC)c1OC | 22.3%
41 | CCN1C(=O)c2ccccc2Sc2ccc(C(=O)NCCN3CCOCC3)cc21 | -5.49%
42 | CCOC(=O)c1nnn(-c2nonc2-n2cccc2)c1CCl | 19.6%
43 | CCc1nnc(NC(=O)c2ccc(COc3cccc(C)c3)o2)s1 | 27.1%
44 | COCC(=O)N1CCN(c2nc3ccccc3o2)CC1 | 19.8%
45 | Cc1ccc(C)c(NC(=O)c2sc(Cl)nc2C)c1 | -3.2%
46 | COc1cccc(CN(C)CC(=O)Nc2ccccc2C(=O)Nc2ccccc2)c1OC | 6.18%

Row | SMILES | hERG current change (%, negative = inhibition) at 10uM
47 | Cc1ccc(S(=O)(=O)NN2C(=O)c3ccccc3NC2c2ccccc2F)cc1 (centres unmarked) | 11.2%
48 | O=C1CC(c2ccc(F)cc2)Sc2ccccc2N1 (centres unmarked) | -30.7%
49 | COC(=O)Cn1c(O)c(N=NC(=O)c2ccc3c(c2)OCO3)c2ccccc21 | 18.4%
50 | O=S(=O)(c1ccccc1)N1C2CCC1CC(O)(c1cccnc1)C2 (centres unmarked) | -3.56%
51 | CCCCCCn1c(=O)c(C(=O)Nc2cccc(C)n2)c(O)c2ccccc21 | 23.8%
52 | CCOc1ccc(C(=S)N2CCOCC2)cc1OC | 10.4%
53 | O=C(Nc1ccc2c(c1)OCO2)c1ccc([N+](=O)[O-])cc1[N+](=O)[O-] | 9.76%
54 | CCn1cc(C(=O)NCC(=O)NCCCN2CCOCC2)c(=O)c2cc3c(cc21)OCO3 | 18.2%
55 | COc1ccccc1N1CCN(C(=O)CSc2nc3ccccc3o2)CC1 | -1.97%
56 | O=C(NCCC1=CCCCC1)C1CCC(CNc2c(N3CCCCC3)c(=O)c2=O)CC1 (centres unmarked) | 17.7%
57 | CN(C)C(=O)CN1C(=O)NC2(CCCc3ccccc32)C1=O (centres unmarked) | 21.9%
58 | CCOC(=O)c1c(/N=C/N(C)C)sc(C)c1C | 8.82%
59 | O=[N+]([O-])c1cc([N+](=O)[O-])c(Oc2cccnc2Br)cc1NN1CCCCC1 | 2.25%
60 | CCOC(=O)c1cnc2cc(F)c(F)cc2c1N1CCOCC1 | -2.45%
61 | Clc1cc(Cl)c2nc(N3CCCC3)sc2c1 | 6.82%
62 | COCCN(Cc1nc(-c2ccc(-c3ccccc3)cc2)oc1C)C(C)C | -71.4%
63 | CCOC(=O)c1c(C)n(O)c2ccc(Cl)cc2c1=O | 13.9%
64 | O=C(CC1(O)C(=O)N(CCc2ccccc2)c2ccccc21)c1ccco1 (centres unmarked) | -12.9%
65 | O=C(CNC(=S)NC(=O)c1ccc(Cl)cc1)c1ccccc1 | 9.97%
66 | Cc1ccc(CNC(=O)C(=O)NCC2OCCN2S(=O)(=O)c2ccc(Cl)cc2)cc1 (centres unmarked) | -2.85%
67 | CCOc1ccccc1NC(=O)C1=C(C)NC(=O)NC1c1cccc(OC)c1OC (centres unmarked) | 14.8%
68 | CCOC(=O)C1(CCCc2ccccc2)CCN(C(=O)C2CCCO2)CC1 (centres unmarked) | -25.7%
69 | COc1cc(C(=S)N2CCCC2)cc(Cl)c1OCC(=O)Nc1ccc(C)cc1C | -2.37%

Row | SMILES | hERG current change (%, negative = inhibition) at 10uM
70 | Cc1ccc(C2(O)CC(C)N(C)CC2C)cc1 (centres unmarked) | 12.6%
71 | CCOC(=O)CCC(=O)NNC(=O)COc1ccc(C(C)C)cc1Br | -34.5%
72 | O=C(NCCC1=CCCCC1)NC12CC3CC(CC(C3)C1)C2 | 0.663%
73 | CC(C)N1C(=O)N(c2cccc(Cl)c2)C(C)(O)CC1(C)C (centres unmarked) | 17.5%
74 | O=C(c1ccccc1)N1CCCCC(Sc2nnc3ccccn23)C1=O (centres unmarked) | 5.24%
75 | CCCCNC(=O)CN(CCc1ccccc1)S(C)(=O)=O | -12.6%
76 | COc1ccc(-c2nnc(SCc3nnc(-c4ccccc4)o3)n2C)cc1OC | -54.3%
77 | Cc1ccc(OCCC(=O)OC(C)C(=O)NC2CC2)cc1 (centres unmarked) | 11.8%
78 | CC(=O)Nc1cc(C(=O)NCc2ccco2)ccc1Sc1ccc(Cl)cc1 | -35.6%
79 | COc1cc(-c2nc(-c3ccc(NC(=O)c4ccc5c(c4)OCO5)cc3)no2)cc(OC)c1OC | 14.3%
80 | O=C(Cn1nc(C(F)(F)F)cc1C1CC1)NCc1ccccc1F | -3.07%
81 | C=Cn1ccnc1P(=S)(c1cc(N(CC)CC)ns1)c1nccn1C=C | 3.74%
82 | CCOc1ncccc1C(=O)OCC(=O)Nc1ccc(S(=O)(=O)N2CCCC2)cc1 | -11.6%
83 | CC1(C)Cc2c(sc3c2c(=N)n(Cc2ccco2)c(=O)n3Cc2ccccc2)CO1 | -12.5%
84 | O=C(CSc1n[nH]c(-c2ccco2)n1)Nc1sc2c(c1C(=O)Nc1ccccc1)CCCC2 | -41%
85 | O=C(c1ccc2[nH]c(=O)c(=O)[nH]c2c1)N1CCN(c2ccccc2)CC1 | -0.599%
86 | COC(=O)CN1C(c2ccc(OC)cc2)=Nc2ccc(Cl)cc2C1c1ccccc1 (centres unmarked) | -33.7%
87 | COc1cc(SC)ccc1C(=O)OCc1nc2ccsc2c(=O)[nH]1 | -30.6%
88 | CC(=O)c1cccc(NC(=O)CCC2CCCC2)c1 | 0.483%
89 | CCn1c(=O)c2c(nc(SCC(=O)N3CCCC(C)C3)n2C)n(C)c1=O (centres unmarked) | 8.52%
